Data published in the supplement of paper PMC3334620.
Over roughly 33,000 sequences, “E-score (-0.5 to 0.5)” has its median near -0.013; the highest 2% begin near 0.3. Some of the results follow.

Molecular target: T1, Msn1 (UniProt P22148)
T1 sequence: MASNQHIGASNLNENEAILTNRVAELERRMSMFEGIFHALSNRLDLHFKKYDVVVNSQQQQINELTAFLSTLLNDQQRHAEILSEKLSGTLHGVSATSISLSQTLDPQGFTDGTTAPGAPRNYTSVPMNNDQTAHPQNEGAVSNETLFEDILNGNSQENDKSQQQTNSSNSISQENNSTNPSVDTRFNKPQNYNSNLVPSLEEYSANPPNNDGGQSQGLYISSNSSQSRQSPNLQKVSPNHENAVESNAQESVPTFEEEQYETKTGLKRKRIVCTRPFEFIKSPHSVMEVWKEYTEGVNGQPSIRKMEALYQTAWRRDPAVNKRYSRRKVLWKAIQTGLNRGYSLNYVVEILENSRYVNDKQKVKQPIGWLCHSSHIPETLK
Assay: PBM E-score (8-mer binding enrichment) (E-score (-0.5 to 0.5)); higher = stronger / more preferred TF binding; most listed sequences are background and not binding sites
Conditions: protein concentration: 200 nM; construct: GST-full length
Outline: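 Yeast transcription factors carrying a GST tag, as full-length proteins or DNA-binding domains, were produced by PURExpress in vitro transcription/translation. About 100-200 nM protein was applied to universal all-10-mer Agilent arrays, double-stranded by primer extension on fresh or once-stripped slides. Bound protein was detected with fluorescent anti-GST, and scans were normalised with masliner. The Universal PBM Analysis Suite gave each ungapped eight-base word, pooled with its reverse complement, an E-score, a modified Wilcoxon-Mann-Whitney statistic.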

| Sequence | PBM E-score |
| --- | --- |
| AGTCACAC | -0.079 |
| GCGCGTAA | 0.0712 |
| ATTTAGAC | 0.151 |
| CTAGTTCA | -0.0518 |
| AGGGATAG | -0.2 |
| AGATCGGC | -0.154 |
| CAAGCTGG | -0.248 |
| TCATTCGA | 0.0861 |
| TAGATAGA | 0.124 |
| AAACCGGG | -0.0257 |
| CCAACGCC | -0.0515 |
| ATTGCAAC | 0.0266 |
| CTGGAAGA | -0.0581 |
| ATTTTTCC | 0.21 |
| AACTGCGA | 0.0208 |
| AACCCCAG | -0.172 |
| AACCCCCG | -0.354 |
| GCTGCTGA | -0.0498 |
| AGGTGCGA | -0.112 |
| AGAAAGAA | -0.0629 |
| ATGCCTAA | -0.0976 |
| CGCTGGAG | -0.239 |
| CACGAACG | -0.00401 |
| CTAACGTC | 0.041 |

| Sequence | PBM E-score |
| --- | --- |
| GAGTGACA | 0.221 |
| GAGGACTA | 0.0516 |
| ACCGCCTG | -0.279 |
| ATCTACCA | 0.023 |
| GATGGTGA | -0.169 |
| CCCACCAC | -0.22 |
| GACTGCGA | -0.142 |
| AACCTCCA | -0.27 |
| GCGGGAAC | -0.169 |
| AATAAGCA | 0.0436 |
| GAACGAGC | 0.145 |
| AGGGTCGC | -0.229 |
| CCGGGCTC | -0.119 |
| ACGCCAAG | -0.249 |
| AGGACACG | 0.467 |
| AATTATCA | 0.102 |
| AGTCTTGA | 0.127 |
| AACTGGAC | 0.128 |
| ACTGGGGA | -0.247 |
| ATACGCAA | -0.0647 |
| CGATTCAC | -0.141 |
| AAGAAGCG | -0.0636 |
| TACCTACA | -0.026 |
| AACTTTCC | -0.116 |

| Sequence | PBM E-score |
| --- | --- |
| ACCCGAGT | -0.198 |
| ATAAGAAA | 0.0285 |
| ACTAACCG | -0.0257 |
| TAGTCGGA | 0.104 |
| ATCGTAGA | -0.0369 |
| TTATCGAA | 0.091 |
| CTAACTCC | -0.274 |
| CTTACGTA | 0.0775 |
| AACGAAAA | 0.207 |
| AACGAGAA | 0.115 |
| CTATAGAA | -0.0562 |
| GATGATCC | -0.0558 |
| AGGTGGTG | 0.00496 |
| CTAACCGC | -0.139 |
| CCGGAGAG | -0.033 |
| ATGCTTTC | 0.0201 |
| ACGGACCG | -0.0826 |
| GAACTTGA | 0.133 |
| AAAAGAAG | 0.122 |
| GGTATTTA | 0.0759 |
| GTTGTCGA | 0.00891 |
| GATGCACA | -0.19 |
| ATTTCCCC | -0.0769 |
| AGCACATA | -0.0583 |

| Sequence | PBM E-score |
| --- | --- |
| ATGATGTA | 0.173 |
| ACTCGGGC | 0.0184 |
| ATTACCGG | -0.0349 |
| CATCCTGG | 0.0159 |
| TCTAGTAA | 0.0589 |
| ATGGATGG | -0.172 |
| CGGCTCGA | 0.0667 |
| AGTTTCGA | -0.118 |
| CCATTGGC | -0.0912 |
| ATTAGCAG | -0.19 |
| ATTACTAC | -0.0376 |
| TCGCGCCA | -0.0985 |
| TCATTAGA | 0.0367 |
| AGACCTGG | -0.108 |
| ACAGCCGT | 0.0116 |
| CGTAGGAA | -0.153 |
| AAGTTATA | 0.175 |
| ACCGAACC | -0.198 |
| ATGCTAGA | 0.0751 |
| GGCGTATA | -0.126 |
| ACAAAGCG | 0.125 |
| GATTAACA | 0.201 |
